About 18,000 (5.8%) of roughly 310,000 compounds were called active. Inconclusive results, whose numbers are uncertain, are shown with a selection of clear calls. The call rests on the fitted dose curve; in most records, active means well fitted inhibition curve with a large enough effect; inconclusive means small, poorly fitted or top-dose-only effect, or another doubt; inactive means no such curve, though single readings can be large or run the other way. No potency is given beside an inconclusive call; the fits are too rough.
test: Primary qHTS for delayed death inhibitors of the malarial parasite plastid, 48 hour incubation; conditions: P. falciparum luciferase growth in erythrocytes; series mostly up to 28.7 µM
How it was run: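 Read-out is firefly luciferase luminescence from an integrated reporter in P. falciparum, so falling signal marks reduced parasite growth. Infected erythrocytes were at 2% hematocrit and 0.1% parasitemia (final) in Albumax-supplemented RPMI 1640.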
Potency means the concentration at half of the fitted maximal effect; tags describe the fitted curve by direction and shape.

| SMILES | Potency |
| --- | --- |
| O=C(c1cccc(NS(=O)(=O)c2cccc(F)c2)c1)N1CCCC1 | inactive |
| COc1cccc(N=C2SC(C(=O)Nc3ccccc3F)CC(=O)N2C)c1 (configuration not stated) | inconclusive [inhibitor, single point] |
| Cc1cc(C(C)(C)C)oc1C(=O)N(CC(=O)NC1CCCC1)c1cccc(C(F)(F)F)c1 | active: 9.28 µM |
| COc1ccccc1CNC(=S)Nc1ccc(S(N)(=O)=O)cc1 | inactive |
| COc1ccc2c(c1)CC/C2=N\OC(=O)c1cccc(C)c1 | inconclusive [inhibitor, single point] |
| CC(C)(C)C(=O)N1CCN(C(c2ccccc2)c2ccccc2)CC1 | active: 11.7 µM |
| C[C@H](N[C@@H](C)COc1ccccc1)[C@H](O)c1ccc(O)cc1 | inactive |
| CCCCC(C(=O)NC(C)(C)C)N(Cc1ccccc1)C(=O)c1snc(C(N)=O)c1N (configuration not stated) | inconclusive [inhibitor, partial curve] |
| Cn1c(NCC(O)c2ccccc2)nc2c1c(=O)n(Cc1ccc(Cl)cc1)c(=O)n2C (configuration not stated) | inconclusive [inhibitor, single point] |
| COCCN(C(=O)CCC(=O)Nc1ccccn1)C(C(=O)NCCC(C)C)c1ccc(OC)cc1 (configuration not stated) | inconclusive [inhibitor, partial curve, poor fit] |
| O=C(NC(=S)NCc1cccnc1)c1ccc([N+](=O)[O-])cc1 | inconclusive [inhibitor, single point] |
| Cc1cc(N2C(=O)C(O)=C(C(=O)c3cc4ccccc4o3)C2c2ccc([N+](=O)[O-])cc2)no1 (configuration not stated) | inconclusive [inhibitor, single point] |
| Cc1ccnc(NC(=O)c2cc(-n3cnnc3)ccc2Cl)c1 | inactive |
| COc1ccc(OC)c(NC(=O)Cc2csc(NC(=O)Nc3ccccc3OC)n2)c1 | inconclusive [inhibitor, single point] |
| Cc1ccc(CNC(=O)C(NS(=O)(=O)c2cccs2)C(C)C)cc1 (configuration not stated) | inconclusive [inhibitor, single point] |
| Cn1nc(C(F)(F)F)c(-c2ccc(Br)cc2)c1NC(=O)c1ccco1 | inconclusive [inhibitor, partial curve] |
| O=C1CC(N2CCN(c3ccccc3)CC2)C(=O)N1c1cccc(Br)c1 (configuration not stated) | inactive |
| COc1ccccc1Sc1ccccc1CC(C)N (configuration not stated) | inconclusive [inhibitor, single point] |
| Cn1nc(C(F)(F)F)c(C(=O)Nc2ccc(F)cc2F)c1Sc1cccc(C(F)(F)F)c1 | active: 9.28 µM |
| Cn1cnnc1Sc1ccc(C(=O)NCCC23CC4CC(CC(C4)C2)C3)cc1[N+](=O)[O-] | inconclusive [inhibitor, single point] |
| COc1ccc(CCC(=O)OCC(=O)Nc2ccc3[nH]c(=O)[nH]c3c2)cc1 | inactive |

| SMILES | Potency |
| --- | --- |
| CC1(C)Cc2c(sc3c2c(=O)n(-c2ccc(Cl)cc2)c(=O)n3CC(N)=O)CO1 | inconclusive [inhibitor, partial curve, poor fit] |
| COC(=O)[C@H]1C[C@@H]1[C@H](NC(=O)c1cc(C)on1)c1ccccc1 | inactive |
| O=C(Nc1ccc(Oc2ccccc2)nc1)C1CCCCN1Cc1cccc(O)c1 (configuration not stated) | inconclusive [inhibitor, partial curve] |
| O=[N+]([O-])c1cc(Cl)ccc1N1CCN(c2cccc(C(F)(F)F)c2)CC1 | inconclusive [inhibitor, single point] |
| CCc1c(C(=O)Nc2ccc(OC)cc2)[nH]c(C)c1C(C)=O | inconclusive [inhibitor, single point] |
| CC(=O)Oc1ccc(-c2cccc(C(=O)NCCCO)c2)cc1 | inactive |
| C=C(C)C(=O)Nc1cccc(C2=NOC3(C2)C[C@H](C(N)=O)N(C(=O)c2ccccc2C(=O)c2ccccc2)C3)c1 (some centres not stated) | inconclusive [inhibitor, single point] |
| CCc1sc2nc(SCC(=O)Nc3cc(C)on3)n(-c3cccc(OC)c3)c(=O)c2c1C | inconclusive [inhibitor, single point] |
| CC(C)(C)c1csc(NC(=O)Cc2cccs2)n1 | inactive |
| COc1cc2c(cc1OC)CN(Cc1cc(OC)c3c(c1)OCO3)CC2 | inconclusive [inhibitor, partial curve, poor fit] |
| CCN(CC)c1ccc(N=Cc2c(O)[nH]c(=O)[nH]c2=O)cc1 | inconclusive [inhibitor, partial curve, poor fit] |
| CCCCCCCCCCCCCCCCOP(=O)([O-])OCC[N+](C)(C)C | inconclusive [inhibitor, single point] |
| CCC(C(=O)NC1CCCC1)N(C(=O)c1snc(C(N)=O)c1N)c1ccc2c(c1)OCCO2 (configuration not stated) | inconclusive [inhibitor, partial curve] |
| CC1CCCN(C(=O)C(=O)Nc2ccc3nc4n(c(=O)c3c2)CCCCC4)C1 (configuration not stated) | inconclusive [inhibitor, partial curve] |
| CCCNC(=O)c1cc(-c2ccccc2)c(N2CCCCC2)s1 | inconclusive [inhibitor, single point] |
| Cc1ccc(Sc2ncnc3onc(C)c23)cc1 | inconclusive [inhibitor, single point] |
| CC1CCCCC1NC(=O)c1cc(S(=O)(=O)N2CCCCC2)ccc1N1CCOCC1 (configuration not stated) | inconclusive [inhibitor, single point] |
| CCc1nnc(NC(=O)C2CCC(CNc3c(N4CCCCC4)c(=O)c3=O)CC2)s1 (configuration not stated) | inconclusive [inhibitor, single point] |
| CN(CC(O)COC(c1ccccc1)c1ccccc1)C1CCCCC1 (configuration not stated) | inconclusive [inhibitor, single point] |
| COc1ccccc1CCNC(=O)c1cccc(S(=O)(=O)N2CCc3ccccc3C2)c1 | inconclusive [inhibitor, single point] |
| Cc1cc(C)nc(N(C#N)CCOc2ccc(Cl)cc2)n1 | inconclusive [inhibitor, partial curve, poor fit] |

Reference: PubChem BioAssay AID504832 (National Center for Advancing Translational Sciences (NCATS), 2011)
